# Test results from paper PMC4336329 (PLoS ONE, 2015).
# Hit rate of the full screen: of about 310,000 compounds, about 2,200 (0.71%) showed an effect of 50% or more. The effect is printed as a negative number. The list shows a part of the results.
# Target: human ether-à-go-go-related gene (hERG) potassium channel (human, UniProt Q12809)
# Test: primary screen, population patch clamp on CHO cells stably expressing hERG
# human ether-à-go-go-related gene (hERG) potassium channel, sequence (Q12809 whole entry, looked up): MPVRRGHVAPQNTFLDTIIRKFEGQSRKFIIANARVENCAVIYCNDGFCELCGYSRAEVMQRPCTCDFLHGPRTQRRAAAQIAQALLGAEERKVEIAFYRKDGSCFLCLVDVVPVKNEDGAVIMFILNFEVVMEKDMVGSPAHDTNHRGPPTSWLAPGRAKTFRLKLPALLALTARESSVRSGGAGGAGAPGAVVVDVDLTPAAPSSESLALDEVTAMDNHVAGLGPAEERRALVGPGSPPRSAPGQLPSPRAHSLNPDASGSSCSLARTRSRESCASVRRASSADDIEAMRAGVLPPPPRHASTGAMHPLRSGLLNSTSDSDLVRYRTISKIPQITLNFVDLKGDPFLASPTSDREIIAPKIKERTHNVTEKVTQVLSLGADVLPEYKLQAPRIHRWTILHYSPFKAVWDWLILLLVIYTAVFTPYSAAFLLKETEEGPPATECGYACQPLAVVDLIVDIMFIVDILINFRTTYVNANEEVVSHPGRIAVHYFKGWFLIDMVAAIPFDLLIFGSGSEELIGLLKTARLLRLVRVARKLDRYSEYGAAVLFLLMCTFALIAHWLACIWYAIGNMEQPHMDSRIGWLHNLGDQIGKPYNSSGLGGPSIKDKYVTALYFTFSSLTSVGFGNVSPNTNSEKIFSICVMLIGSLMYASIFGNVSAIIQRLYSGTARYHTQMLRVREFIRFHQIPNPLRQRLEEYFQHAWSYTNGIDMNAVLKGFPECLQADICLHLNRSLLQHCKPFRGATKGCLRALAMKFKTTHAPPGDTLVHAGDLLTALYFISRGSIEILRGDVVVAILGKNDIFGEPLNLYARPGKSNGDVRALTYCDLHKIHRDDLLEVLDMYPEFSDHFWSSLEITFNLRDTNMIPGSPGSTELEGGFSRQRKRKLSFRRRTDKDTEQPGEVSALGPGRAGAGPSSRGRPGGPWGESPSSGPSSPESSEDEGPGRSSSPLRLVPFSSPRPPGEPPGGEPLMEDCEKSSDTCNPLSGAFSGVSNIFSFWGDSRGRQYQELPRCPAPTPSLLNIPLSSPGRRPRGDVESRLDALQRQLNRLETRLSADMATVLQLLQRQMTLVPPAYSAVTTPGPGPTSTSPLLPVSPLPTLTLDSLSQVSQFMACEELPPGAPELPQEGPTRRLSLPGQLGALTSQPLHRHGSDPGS
row,Compound,"hERG current change (%, negative = inhibition) at 1uM"
1,C/C(CC(=O)Nc1ccc(Cl)c(C(F)(F)F)c1)=N\NC(N)=S,11.2%
2,CC(C)CC(=O)Nc1nnc(CCc2ccccc2)s1,8.54%
3,N#Cc1ccc(COC(=O)c2cc(=O)c3ccccc3o2)cc1,9.46%
4,N#CCc1ccc(NC(=O)Cn2c(=O)oc3ccccc32)cc1,14.8%
5,N/C(=N\N=C\c1cccc(O)c1)c1nonc1N,15.3%
6,COc1ccc(-c2ccc(CCC(=O)O)n2Cc2ccco2)cc1,6.23%
7,CCSc1nnc2n(-c3ccc(OC)cc3)c(=O)c3c4c(sc3n12)CCCC4,1.41%
8,O=C(Nc1cccc(NS(=O)(=O)c2ccc(S(=O)(=O)NC3CC3)cc2)c1)c1ccccn1,8.94%
9,COc1ccc(-c2noc3c2-c2nc(-c4ccc(Br)cc4)sc2CC3)cc1,15%
10,CC(=O)Oc1ccccc1C1OCCN1C(C)=O (stereo not drawn),9.33%
11,CS(=O)(=O)N(Cc1ccccc1)c1ccc(C(=O)NCCSc2ccccn2)cc1,7.96%
12,Oc1c(Br)cc(Br)cc1CNc1ccc(F)cc1,12.9%
13,O=S(=O)(Cc1ccccc1)N1CCC(c2nc(-c3cccs3)no2)CC1,-1.55%
14,O=C(Cn1nc(-c2ccccc2)c2ccccc2c1=O)NCC1CCCO1 (stereo not drawn),11.5%
15,Cc1ccc(SCCC(=O)Nc2ccc(OCc3ccccc3)cc2)cc1,13%
16,COc1ccc(O)c(/C=N/c2nc3ccccc3n2C)c1,3.85%
17,Cc1nnc(Nc2ccc(Cl)c(C(F)(F)F)c2)[nH]c1=O,3.48%
18,O=C(CSc1nc2[nH]c(=O)cc(O)c2s1)Nc1cccc(Br)c1,18.8%
19,O=C(COC(=O)C1CC2CCCC(C1)C2=O)NC(=O)c1ccc(OC(F)F)cc1 (stereo not drawn),10.5%

row,Compound,"hERG current change (%, negative = inhibition) at 1uM"
1,CN1CCN(c2ccc(Cl)cc2NC(=O)CN2C(=O)NC(C)(c3ccccc3)C2=O)CC1 (stereo not drawn),5.3%
2,CCCS(=O)(=O)N1CCC(C(=O)NCCN(CC)c2ccccc2)CC1,-1.32%
3,O=C(c1ccc(F)cc1)N1CCC(N2CCCCCC2)CC1,-4.92%
4,NS(=O)(=O)c1ccc(NC(=S)NC(=O)c2ccco2)cc1,8.09%
5,Cc1ccc(-n2c(N)c(C(=O)NCc3ccco3)sc2=S)cc1,6.79%
6,OCCC1CN(Cc2ccc3nonc3c2)CCN1Cc1ccsc1 (stereo not drawn),-49.8%
7,Cc1nnsc1C(=O)NNc1c(Cl)cccc1Cl,7.41%
8,COc1ccc(C(=O)NC(=S)NNC(=O)c2cccc(C)c2)cc1,14.4%
9,CCCNC(=O)CN1C(=O)NC2(CCCc3cc(OC)ccc32)C1=O (stereo not drawn),-4.9%
10,O=C1C2C3C=CC(C3=C3CCCCC3)C2C(=O)N1Cc1ccccc1 (stereo not drawn),6.73%
11,CCOC(=O)Cc1csc(NC(=O)CSc2nnc(-c3ccc(C)cc3)o2)n1,8.95%
12,OCC1(CCOc2ccccc2)CCN(Cc2ccncc2)CC1,-0.954%
13,Cc1ccc2nc3c(cc2c1)c(NC(=O)C1CCCO1)nn3CC(C)C (stereo not drawn),-11.3%
14,COc1ccc(Nc2nnc(-c3ccc(O)cc3)c3ccccc23)cc1,2.63%
15,Cc1ccc2c(c1)N(CC(=O)N1CCCCC1c1cccnc1)C(=O)CO2 (stereo not drawn),-13.4%
16,COC(=O)C(C)Sc1nc2c([nH]c3ccccc32)c(=O)n1C (stereo not drawn),2.24%
17,COc1cccc2cc(C(=O)N3CCN(c4ccc(C)cc4C)CC3)c(=O)oc12,11.9%
18,CC(=O)Nc1ccc(NC(=O)COc2ccc(S(=O)(=O)N3CCCC3)cc2C)cc1,12%
19,CC(C)OCCCNC(=O)C(Cc1ccccc1)NS(=O)(=O)c1ccc2c(c1)CCC(=O)N2 (stereo not drawn),13.3%

row,Compound,"hERG current change (%, negative = inhibition) at 1uM"
1,Nc1nn(-c2ccccc2)nc1C(=O)OCc1ccccc1F,10.3%
2,CCCCC(=O)Nc1nc(C)c(-c2csc(Nc3ccccc3OC)n2)s1,-3.5%
3,O=C(/C=C/c1c(Cl)nc2ccccn12)N1CCCCC1,8.18%
4,COC(=O)c1c(NC(=O)C(=O)N2CCOCC2)sc2c1CCCC2,16%
5,COCCNCCOc1ccccc1-c1ccccc1.O=C(O)C(=O)O,1.58%
6,O=C(OCc1nc2ccccc2[n+]([O-])c1C(=O)c1ccccc1)c1ccco1,9.63%
7,CN(Cc1ccccc1)C(=O)COC(=O)CNS(=O)(=O)c1ccc2ccccc2c1,5.86%
8,CCc1nc2sc(C)c(C)c2c(=O)n1CCO,14.1%
9,Cn1c(N)c(C(=O)COC(=O)/C=C/c2ccc(Cl)cc2)c(=O)n(C)c1=O,2.92%
10,Cc1ccc(NC2=NC(c3ccc(C)cc3)n3c(nc(C)cc3=O)N2)cc1 (stereo not drawn),25.6%
11,COc1ccc(OCC(=O)NCCc2ccc(S(N)(=O)=O)cc2)cc1,0.271%
12,CCN(CC)C(=O)/C(=C\c1cccc([N+](=O)[O-])c1)NC(=O)c1ccco1,2.17%
13,C/C=C/Cn1c(N2CCCCCC2)nc2c1c(=O)[nH]c(=O)n2C,5.19%
14,Cn1nnnc1SCC(=O)Nc1cc(C(C)(C)C)nn1-c1ccccc1,-3.42%
15,COc1ccc(-c2cnnn2-c2ccc(NC(=O)c3ccc(S(=O)(=O)N4CCCCC4)cc3)cc2)cc1OC,4.41%
16,COc1ccc(OC)c(S(=O)(=O)N/N=C\c2c[nH]c3ccccc23)c1,12.5%
17,COCc1nnc(NC(=O)c2ccccc2[N+](=O)[O-])s1,15%
18,O=C(COc1ccc(C(=O)c2ccccc2)cc1)Nc1cccnc1,43.8%
19,C=CCn1c(SCC(=O)Nc2nnc(CC)s2)nnc1-c1cccnc1,19.9%
